The source of these data is PubChem BioAssay (NCI).

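In this assay, cells in 96-well plates receive the compound at five concentrations for 48 hours. Endpoints are linearly interpolated between the surrounding concentrations. GI50 is the concentration that inhibits growth by half.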 The source holds more than one record for some entries. The list is limited to them. There may be further records. For part of these data: Results that share an entry repeat one measurement across runs, samples, wells, individuals or studies. What stands in brackets tells the records apart. Letters hold for one entry only.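 The concentration for full growth arrest is given as TGI.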 For part of these data: The tests behind the records often covered other concentration ranges, which the source does not state; a value can be the end of its range.

Common to all, as to test: NCI-60 cell line screen, 48 h
Experiment [1] concerns SN12C renal.
Experiment [2] deals with HT29 colon.
For experiment [3], the system named is NCI/ADR-RES ovarian.
In experiment [4] the test system is OVCAR-8 ovarian.
Experiment [5] concerns OVCAR-3 ovarian.
In experiment [6] the test system is MDA-MB-231 breast.
Experiment [7] relates to MDA-N.
Experiment [8] relates to MOLT-4 leukemia.
The test system of experiment [9] is HL-60(TB) leukemia.
The subject of experiment [10] is K-562 leukemia.
The test system of experiment [11] is 786-0 renal.
Experiment [12] deals with ACHN renal.
In experiment [13] the test system is LOX IMVI melanoma.
Experiment [14] deals with M14 melanoma.
For experiment [15], the system named is A549 NSCLC.
Experiment [16] deals with CCRF-CEM leukemia.
The test system of experiment [17] is MCF7 breast.
The subject of experiment [18] is EKVX NSCLC.
The test system of experiment [19] is BT-549 breast.
The test system of experiment [20] is TK-10 renal.
In experiment [21] the test system is NCI-H226 lung.
Experiment [22] concerns SK-MEL-28 melanoma.
Experiment [23] has as its system CAKI-1 renal.
Experiment [24] relates to OVCAR-4 ovarian.
The test system of experiment [25] is NCI-H522 lung.

For the compound `Oc1ccc2ccccc2c1-c1nnc(CCCCCCCCc2nnc(-c3c(O)ccc4ccccc34)o2)o1`, the TGI was 3.37 µM and > 49.3 µM in [1]; 1.2 µM and > 68.8 µM in [2]; 1.11 µM and > 100 µM in experiment [3]; 2.66 µM and > 100 µM in experiment [4]; 25 µM and 2.2 µM in experiment [5]; 2.02 µM and > 66.6 µM in experiment [6]. For the same compound, the TGI in experiment [7] is 7.61 µM and > 100 µM; in experiment [8], 479 nM and > 37.3 µM.

Take `CCCCCCCCCCCCCCCCP(=O)(O)OP(=O)(O)OCC1OC(n2ccc(N)nc2=O)C(O)C1O` (stereo unspecified): the GI50 was > 100 µM [sample A, 1 test] and 4.76 µM [sample B, mean of 2 tests] in [9]; > 100 µM [sample A, 1 test] and 8.9 µM [sample B, mean of 2 tests] in [10]; > 100 µM [sample A, 1 test] and 7.62 µM [sample B, mean of 2 tests] in experiment [3]; > 100 µM [sample A, 1 test] and 1.17 µM [sample B, mean of 2 tests] in experiment [4]; > 100 µM [sample A, 1 test] and 8.01 µM [sample B, mean of 2 tests] in experiment [11]; > 100 µM [sample A, 1 test] and 4.75 µM [sample B, mean of 2 tests] in experiment [12]. In addition, the GI50 in experiment [13] is > 100 µM [sample A, 1 test] and 9.46 µM [sample B, mean of 2 tests]; in [8], > 100 µM [sample A, 1 test] and 426 nM [sample B, mean of 2 tests]; in experiment [14], > 100 µM [sample A, 1 test] and 6.44 µM [sample B, mean of 2 tests]; in experiment [15] it was > 100 µM [sample A, 1 test] and 2.52 µM [sample B, mean of 2 tests]; in [16], > 100 µM [sample A, 1 test] and 229 nM [sample B, mean of 2 tests].

Turning to `COc1ccc(/C=C\c2cc(OC)c(OC)c(OC)c2)cc1OP(=O)(O)O`, the TGI in experiment [7] was > 100 µM [sample A, 1 test] and 0.136 nM [sample B, mean of 2 tests]; in [17] it was > 100 µM [sample A, mean of 3 tests] and > 100 µM [sample B, 1 test] and 854 nM [sample B, mean of 2 tests].

Take `Cn1c(=O)n(-c2ccc(C(C)(C)C#N)cc2)c2c3cc(-c4cnc5ccccc5c4)ccc3ncc21`: the TGI in experiment [18] was > 100 µM [sample A, 1 test] and 137 nM [sample B, mean of 2 tests]; in experiment [19], 128 nM [sample A, mean of 2 tests] and > 100 µM [sample B, 1 test]; in experiment [20] it was 47.7 nM [sample A, mean of 2 tests] and 708 nM [sample B, mean of 2 tests] and 67.8 nM [sample C, mean of 2 tests]; in experiment [2], 2.52 µM [sample A, mean of 2 tests] and > 10 µM [sample B, mean of 2 tests] and > 100 µM [sample C, mean of 2 tests]; in [21], 18.2 µM [sample A, 1 test] and 293 nM [sample B, 1 test] and > 100 µM [sample C, 1 test]; in [4], 74 nM [sample A, mean of 2 tests] and > 10 µM [sample B, mean of 2 tests] and > 100 µM [sample C, mean of 2 tests]. Besides, the TGI was 6.28 µM [sample A, mean of 2 tests] and > 10 µM [sample B, mean of 2 tests] and > 100 µM [sample C, 1 test] in [11]; 3.89 µM [sample A, mean of 2 tests] and > 7.38 µM [sample B, mean of 2 tests] and > 73.9 µM [sample C, mean of 2 tests] in experiment [5]; 13.4 µM [sample A, mean of 2 tests] and 327 nM [sample B, 1 test] and > 100 µM [sample C, mean of 2 tests] in [22]; > 100 µM [sample A, 1 test] and 2.84 µM [sample B, mean of 2 tests] in [8]; 2.41 µM [sample A, mean of 2 tests] and > 5.44 µM [sample B, mean of 2 tests] and 168 nM [sample C, 1 test] in experiment [14]; 81.7 nM [sample A, mean of 2 tests] and > 10 µM [sample B, mean of 2 tests] in experiment [15]. For the same compound, the TGI in experiment [24] is 2.36 µM [sample A, 1 test] and 51.7 nM [sample B, mean of 2 tests] and > 100 µM [sample C, 1 test]; in experiment [25], 78 nM [sample A, mean of 2 tests] and > 9.48 µM [sample B, mean of 2 tests] and > 22.8 µM [sample C, mean of 2 tests]. Besides, the GI50 in experiment [23] was 15.2 nM [sample A, mean of 2 tests] and < 1 nM [sample B, 1 test] and < 12.8 nM [sample C, mean of 2 tests].
